The values below come from PMC4336329 (PLoS ONE, 2015).

SMILES strings stand for the structures. About 14,000 (4.5%) of roughly 310,000 compounds showed an effect of 50% or more. The effect is printed as a negative number. Some of the results follow.
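Note: peak tail current of the secondary pulse compared with the same well before compound.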

In the experiment the target is human ether-à-go-go-related gene (hERG) potassium channel (human, UniProt Q12809). The experiment in a line: primary screen, population patch clamp on CHO cells stably expressing hERG.
Sequence of human ether-à-go-go-related gene (hERG) potassium channel (Q12809 whole entry, looked up): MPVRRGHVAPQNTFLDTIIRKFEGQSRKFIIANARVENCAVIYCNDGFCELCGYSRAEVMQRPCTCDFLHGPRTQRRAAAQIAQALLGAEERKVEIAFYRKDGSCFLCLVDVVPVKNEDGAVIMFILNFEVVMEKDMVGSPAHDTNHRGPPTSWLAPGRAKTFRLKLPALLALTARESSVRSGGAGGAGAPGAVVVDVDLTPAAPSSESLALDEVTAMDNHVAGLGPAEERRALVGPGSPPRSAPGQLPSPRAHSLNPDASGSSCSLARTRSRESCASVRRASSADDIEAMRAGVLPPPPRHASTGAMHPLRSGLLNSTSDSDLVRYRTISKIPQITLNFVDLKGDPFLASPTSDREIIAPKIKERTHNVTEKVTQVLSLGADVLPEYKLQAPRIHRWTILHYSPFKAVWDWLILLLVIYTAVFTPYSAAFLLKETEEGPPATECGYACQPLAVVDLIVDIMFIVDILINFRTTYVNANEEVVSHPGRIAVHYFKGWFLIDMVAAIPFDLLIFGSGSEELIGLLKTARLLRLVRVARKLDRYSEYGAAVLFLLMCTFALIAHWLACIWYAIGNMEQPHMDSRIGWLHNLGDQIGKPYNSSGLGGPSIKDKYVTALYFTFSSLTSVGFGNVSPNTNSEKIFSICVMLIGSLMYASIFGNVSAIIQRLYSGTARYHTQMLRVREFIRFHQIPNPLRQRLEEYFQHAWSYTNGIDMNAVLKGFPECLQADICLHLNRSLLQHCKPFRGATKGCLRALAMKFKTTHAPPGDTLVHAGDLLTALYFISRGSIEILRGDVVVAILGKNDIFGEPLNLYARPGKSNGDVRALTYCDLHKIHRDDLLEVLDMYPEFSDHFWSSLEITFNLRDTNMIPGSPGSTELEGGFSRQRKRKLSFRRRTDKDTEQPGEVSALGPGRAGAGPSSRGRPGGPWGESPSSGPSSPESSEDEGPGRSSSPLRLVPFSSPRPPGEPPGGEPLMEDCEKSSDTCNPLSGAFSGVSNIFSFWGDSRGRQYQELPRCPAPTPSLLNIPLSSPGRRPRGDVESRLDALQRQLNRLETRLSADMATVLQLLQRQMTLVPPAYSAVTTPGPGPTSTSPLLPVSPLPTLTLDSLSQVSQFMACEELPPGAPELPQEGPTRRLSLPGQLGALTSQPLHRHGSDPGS
As to `Cc1ccc(C(=O)COC(=O)CCS(=O)(=O)c2ccccc2)cc1[N+](=O)[O-]`, the “hERG current change (%, negative = inhibition) at 10uM” value was determined as 14.5%.

For `Cc1nc(-c2ccccc2)sc1C(=O)/C=C/c1ccccc1`, the “hERG current change (%, negative = inhibition) at 10uM” value is listed as 4.34%. As for `O=C(OCC(=O)N1CCc2ccccc21)c1ccc(Cl)nc1`, the figure is 8.87%; as for `CN(C)C(=O)CSc1nnc2sc3ccccc3n12`, 6.04%; as for `Cc1onc(C(=O)Nc2ccc(OC(F)(F)F)cc2)c1[N+](=O)[O-]`, 17.4%. On to `Cc1c(OC(C)C(=O)NCc2cccnc2)ccc2c3c(c(=O)oc12)CCCC3` (stereo not shown), for which the “hERG current change (%, negative = inhibition) at 10uM” value was -16.3%. Regarding `Cc1oc2cc3c(C(=O)N4CCCCC4)c(C)oc3cc2c1C(=O)N1CCCCC1`, the “hERG current change (%, negative = inhibition) at 10uM” value was 5.17%.

For `O=C(O)C(=O)O.c1coc(CNC2CCCCC2)c1`, the “hERG current change (%, negative = inhibition) at 10uM” value is -2.66%. On to `CCOC(=O)C1CCN(S(=O)(=O)c2ccc3c4c(cccc24)C(=O)N3)CC1`, for which the “hERG current change (%, negative = inhibition) at 10uM” value was -54.6%. In the case of `CCNc1nc(SCCOc2ccc(C)cc2)nc(N(C)C)n1`, the “hERG current change (%, negative = inhibition) at 10uM” value is reported as 9.02%. Next, `COc1cc(/C=C/C(=O)NC(=O)c2ccccc2O)ccc1OC(C)=O`: -5.45%; `COc1ccc(/C=C/C(=O)N(C)C2CCCCC2)cc1Br`: -43.3%. Next, `Cc1cc(C)n(CC(=O)n2c3ccccc3c3ccccc32)n1`: 4.45%; `COc1ccc(Cl)cc1NC(=O)CNc1ccccc1N1CCOCC1`: 64%; `O=C(c1cc2ccccc2o1)N1CCCCCC1`: -5.92%. Next, `CCOc1ccc(NC(=O)c2ccc(N)cc2)cc1`: 4.11%; `COc1ccc(-c2cc(C(F)(F)F)c3c(=O)n(-c4ccccc4)[nH]c3n2)cc1`: 27.5%. In the case of `Cc1ccc(C(C(=O)NC2CCCCC2)N(C(=O)c2csnn2)c2ccccc2F)o1` (stereo not shown), the “hERG current change (%, negative = inhibition) at 10uM” value is given as 14.9%.

`O=C(O)CN(Cc1ccccc1)S(=O)(=O)c1ccc2c(c1)OCCO2`: the “hERG current change (%, negative = inhibition) at 10uM” value is -1.41%. Take `CC(=O)c1cccc(NC(=O)c2ccc(N(C)S(=O)(=O)c3ccc(C)cc3)cc2)c1`: the “hERG current change (%, negative = inhibition) at 10uM” value came out at 0.342%. As for `O=C(N/N=C\c1c(O)ccc2ccccc12)c1ccc(Cn2cccn2)o1`, the figure is 9.2%; as for `O=c1[nH]c(C2CCCN(S(=O)(=O)c3ccccc3)C2)nc2c1nnn2Cc1ccc(OC(F)(F)F)cc1` (stereo not shown), 26.6%; as for `O=C(CNS(=O)(=O)c1ccc(Br)cc1Cl)OCC(=O)N1CCCC1=O`, -0.327%. As for `COc1nc2c(C)cccc2cc1-c1noc(-c2ccco2)n1`, the “hERG current change (%, negative = inhibition) at 10uM” value is -8.01%.

`NC(=O)c1c(NC(=O)c2cc3ccccc3o2)sc2c1CCC2`: the “hERG current change (%, negative = inhibition) at 10uM” value turned out to be 7.21%. On to `COc1ccc(NC(=O)Nc2ccc3c(c2)CCC3)cc1`, for which the “hERG current change (%, negative = inhibition) at 10uM” value is listed as -16.6%. As to `CCCCc1ccc(-c2csc(/C(C#N)=C\c3ccc(C)o3)n2)cc1`, the “hERG current change (%, negative = inhibition) at 10uM” value is recorded as 9.23%. In the case of `CCCCc1ccc(NC(=O)CSc2nc(=O)n(CCN(CC)CC)c3c2CCCC3)cc1`, the “hERG current change (%, negative = inhibition) at 10uM” value is reported as -66.7%. In the case of `CCC(=O)N1CCC2(CC1)Oc1ccc(F)cc1C(=O)C21CC(c2ccc(Cl)cc2)=NO1` (stereo not shown), the “hERG current change (%, negative = inhibition) at 10uM” value is -14.9%.

Consider `O=C(c1ccco1)N1CCN(C(=O)c2ccc(-c3cccc(C(F)(F)F)c3)o2)CC1`, for which the “hERG current change (%, negative = inhibition) at 10uM” value is reported as -79.9%. For the molecule `COc1ccccc1N1CCN(C(=O)CCc2nnc3ccc(N4CCC(C)CC4)nn23)CC1`, the “hERG current change (%, negative = inhibition) at 10uM” value is recorded as -33.5%. For `CC(NC(=O)c1ccccc1F)c1nnc(SCC(=O)N2CCN(c3ccccc3)CC2)n1C` (stereo not shown), the “hERG current change (%, negative = inhibition) at 10uM” value is listed as -0.0704%. As for `COc1ccc(CN2CC(C(N)=O)Oc3ccccc32)cc1F` (stereo not shown), the figure is 3.16%; as for `Cc1oc2c(CN3CCCCC3C)c(O)ccc2c(=O)c1-c1ccc(Br)cc1` (stereo not shown), -50.9%; as for `Cc1cccc(C(=O)NCC(=O)N2CC(=O)Nc3ccccc32)c1`, 53.7%. On to `CCCn1c(SCC(=O)Nc2ccccc2C(=O)OC)nc2c1c(=O)n(C)c(=O)n2C`, for which the “hERG current change (%, negative = inhibition) at 10uM” value was -12.1%. In the case of `CCCSC(=S)NC1CCS(=O)(=O)C1` (stereo not shown), the “hERG current change (%, negative = inhibition) at 10uM” value came out at 2.53%. As to `O=C(NCc1ccc(F)cc1)C(Cc1ccccc1)NS(=O)(=O)c1cccs1` (stereo not shown), the “hERG current change (%, negative = inhibition) at 10uM” value is recorded as 11.3%. As to `Cc1ccccc1Nc1c(-c2ccccn2)nc2c(C)cccn12`, the “hERG current change (%, negative = inhibition) at 10uM” value was -8.27%.

As for `C=CCOc1ccc(/C=C2/C(=O)ON=C2C)cc1OC`, the “hERG current change (%, negative = inhibition) at 10uM” value was 23.7%. Turning to `COc1ccc(C(=O)O)cc1N1C(=O)Nc2ccccc2N1O`, the “hERG current change (%, negative = inhibition) at 10uM” value was found to be 2.73%. Turning to `COc1ccccc1C1CCN(Cc2ccc(C)cc2)CC1`, the “hERG current change (%, negative = inhibition) at 10uM” value was -90%.

Consider `C=C(C)CN1C(=O)C2(OCCO2)c2cc(Br)ccc21`, for which the “hERG current change (%, negative = inhibition) at 10uM” value is -8.14%. With `CCOC(=O)C1=C(C)NC(C)=C(C(=O)OC)C1c1ccco1` (stereo not shown), the “hERG current change (%, negative = inhibition) at 10uM” value was 2.06%. Regarding `NC(=O)c1ccsc1NC(=O)C1CCCN1S(=O)(=O)c1ccc(Cl)cc1` (stereo not shown), the “hERG current change (%, negative = inhibition) at 10uM” value is recorded as -47.7%. Regarding `COc1ccc(CN(CCC(c2ccc(F)cc2)C2CCOC(C)(C)C2)C(=O)c2ccco2)cc1` (stereo not shown), the “hERG current change (%, negative = inhibition) at 10uM” value was -52.1%. In the case of `COC(=O)c1cn(C(=O)c2ccc(C)cc2)c2ccccc12`, the “hERG current change (%, negative = inhibition) at 10uM” value is 3.42%. Next, `CCCONC(=O)Nc1ccccc1[N+](=O)[O-]`: 12.5%; `COc1ccc(-n2c(SCC(=O)Nc3cc(C)on3)nc3c([nH]c4ccccc43)c2=O)cc1OC`: 5.65%; `CCCCN(C(=O)c1cc(=O)[nH]c2ccccc12)c1c(N)n(CCC)c(=O)[nH]c1=O`: -6.04%. Take `COc1ccc(NC2CCCN(C(=O)c3cccnc3)C2)cc1` (stereo not shown): the “hERG current change (%, negative = inhibition) at 10uM” value came out at 14.8%. For `O=C(Nc1cccn(Cc2c(F)cccc2Cl)c1=O)NC1CCCCC1`, the “hERG current change (%, negative = inhibition) at 10uM” value is listed as 11.3%.

`Cc1ccc(N2CCN(C(=O)N3CCCC3)CC2)cc1Cl`: the “hERG current change (%, negative = inhibition) at 10uM” value is reported as 12.9%. As to `CCc1ccc(NC(=O)C(C)Sc2nc(-c3ccco3)c(C#N)c(=O)[nH]2)cc1` (stereo not shown), the “hERG current change (%, negative = inhibition) at 10uM” value is 32.3%.

In the case of `COCCOC(=O)c1c(NC(=O)CN(C)c2ccccc2)sc(C(N)=O)c1C`, the “hERG current change (%, negative = inhibition) at 10uM” value was -3.23%. Take `COc1ccc(NC(=O)CCC(=O)Nc2nnc(CC(C)C)s2)cc1Cl`: the “hERG current change (%, negative = inhibition) at 10uM” value is given as 20%.

On to `COc1ccc(NC(=O)C2CCN(S(=O)(=O)c3ccc(OC)c(OC)c3)CC2)cc1`, for which the “hERG current change (%, negative = inhibition) at 10uM” value was 5.79%. As for `Cc1cc(=O)oc2c3c(cc(OCC(=O)NC4CC4)c12)OC(C)(C)CC3`, the “hERG current change (%, negative = inhibition) at 10uM” value is listed as 9.68%. With `COc1cccc(C(=O)C2CCCN(Cc3cccc(-n4cccn4)c3)C2)c1` (stereo not shown), the “hERG current change (%, negative = inhibition) at 10uM” value was -64.5%. Regarding `O=[N+]([O-])c1cccc(CSc2nnc(Cc3ccccc3)n2-c2ccc(F)cc2)c1`, the “hERG current change (%, negative = inhibition) at 10uM” value is listed as -23.7%. Next, `CCc1nc2nc(C)c(NS(=O)(=O)c3cccs3)c(=O)n2[nH]1`: 15.1%. Turning to `COc1ccc(NC(=O)Cn2c([N+](=O)[O-])cnc2C)cc1Cl`, the “hERG current change (%, negative = inhibition) at 10uM” value is reported as 11.1%. Consider `CC(C)[C@H](NC(=O)C1CCN(S(=O)(=O)c2ccc(F)cc2)CC1)C(=O)N1CCCC1`, for which the “hERG current change (%, negative = inhibition) at 10uM” value is 17.3%. As for `O=C(Nc1ncccn1)C1=C(O)c2ccccc2S(=O)(=O)N1Cc1ccccc1`, the figure is 22.8%; as for `Cc1cc(C)c(S(=O)(=O)Nc2cccnc2)c(C)c1`, 6.23%. Regarding `CCn1cc(C(=O)O)c(=O)c2cc(F)c(N3CCN(C(=S)NC(=O)c4ccccc4Br)CC3)cc21`, the “hERG current change (%, negative = inhibition) at 10uM” value turned out to be 17.6%. On to `Cc1ccc(C(=O)CCC(=O)OCC(=O)Nc2c(C)nn(-c3ccccc3)c2C)cc1`, for which the “hERG current change (%, negative = inhibition) at 10uM” value is recorded as 5.58%. In the case of `Cc1cc(Cl)c(S(=O)(=O)N2CCCCCC2)cc1OCC(=O)NC1CCCCC1`, the “hERG current change (%, negative = inhibition) at 10uM” value is reported as -18.6%. As for `CCCc1nnc(NC(=O)CNc2ccc(F)cc2)s1`, the “hERG current change (%, negative = inhibition) at 10uM” value was -0.23%.

With `O=S(=O)(c1ccc(Cl)cc1)n1c(Cc2ccccc2)nc2ccccc21`, the “hERG current change (%, negative = inhibition) at 10uM” value was found to be 0.437%.

Consider `CC(Oc1ccc(Cl)cc1Cl)C(=O)Nc1ccc2oc(-c3ccncc3)nc2c1` (stereo not shown), for which the “hERG current change (%, negative = inhibition) at 10uM” value amounted to 0.0653%.

Take `Cc1ccc2nc(-c3ccc(O)cc3)c(Nc3ccc4c(c3)OCCO4)n2c1`: the “hERG current change (%, negative = inhibition) at 10uM” value was determined as 0.511%. Turning to `Cc1ccc(NC(=O)c2cnn(-c3ccccc3)c2C)cc1C`, the “hERG current change (%, negative = inhibition) at 10uM” value is listed as -2.19%. Consider `CC(=O)Nc1ccc(C(=O)N/C(=C\c2ccccc2)C(=O)Nc2cccc(C(=O)O)c2)cc1`, for which the “hERG current change (%, negative = inhibition) at 10uM” value is 3.67%. Consider `CC(C)CN(C(=O)C(C)N1C(=O)c2ccccc2C1=O)c1c(N)n(Cc2ccccc2)c(=O)[nH]c1=O` (stereo not shown), for which the “hERG current change (%, negative = inhibition) at 10uM” value is reported as 1.96%. `CC(=O)Nc1ccc(NC(=O)CCSCCc2ccccn2)cc1`: the “hERG current change (%, negative = inhibition) at 10uM” value is reported as 23.5%. Next, `O=C(COC(=O)CNC(=O)c1ccccc1Cl)Nc1cc(C(F)(F)F)ccc1Cl`: -17.8%; `CN(Cc1cccnc1)Cc1c(C(=O)N2CCc3ccccc3C2)nc2ccc(Cl)cn12`: -20.1%; `CCc1ccc(N2C(=O)c3sc4nnc(C)c(=O)n4c3C2=O)cc1`: -27.4%. On to `Cc1cccc(CC2S/C(=N/N=C/c3ccco3)N(c3ccccc3)C2=O)c1` (stereo not shown), for which the “hERG current change (%, negative = inhibition) at 10uM” value is given as -3.69%. `COc1cc(OC)c(C(=O)Nc2ccc(S(=O)(=O)N3CCCCC3)cc2)cc1OC`: the “hERG current change (%, negative = inhibition) at 10uM” value is 0.0248%. As for `Cc1cc(Nc2ccccc2Br)n2nc(C)nc2n1`, the figure is 10.3%; as for `COc1ccc(N2CCN(C(=S)Nc3cccc(OC)c3)CC2)cc1`, 0.525%. Take `CCCN(CC(=O)Nc1ccc(F)c(F)c1F)C(=O)c1ccc2c(=O)n3c(nc2c1)CCC3`: the “hERG current change (%, negative = inhibition) at 10uM” value is given as -5.21%. For `O=C(Nc1nc2ccc(S(=O)(=O)N3CCCC3)cc2s1)C1CCCCC1`, the “hERG current change (%, negative = inhibition) at 10uM” value is 4.81%.
